From PubChem BioAssay (NCI)
Values joined by “and” are separate entries in the source; they are usually repeats but may differ in a detail not shown here. Equal values may be shown once.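 Results reflect a 48-hour exposure of cells in 96-well plates to compound at five concentrations. Here, GI50 denotes the concentration required for 50% inhibition of growth. TGI is the concentration that stops growth completely.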

Tested on: NCI-H322M lung
Experiment: growth of human tumour cells (NCI), 48 h

SMILES	GI50	TGI
O=[N+]([O-])c1ccc(-c2cc3c(Nc4ccc(Cl)c(C(F)(F)F)c4)ncnc3s2)cc1	1.19 µM	> 100 µM
COc1cc2nc(-c3ccc(C(F)(F)F)cc3)cc(OCCCN3CCCC3)c2cc1OC	4.53 µM	21.7 µM
C=C1C(=O)C23C(O)CC4C5(C)CCCC4(C(O)OC5)C2C(OC(C)=O)CC1C3O (configuration not stated)	–	23.8 µM
CCN(CCCl)c1cc(CN(C)C)cc(NC(=O)c2ccc(C(=O)Nc3cccc(CN(C)C)c3)cc2)c1	–	7.47 µM
O=C1CNS(=O)(=O)N1	–	> 100 µM
O=C1/C(=C/c2cccc([N+](=O)[O-])c2)Sc2scc(-c3ccc([N+](=O)[O-])cc3)[n+]21	–	> 100 µM
c1ccc(C2CC(=NC3CCCCC3)Nc3ccccc3N2)cc1 (configuration not stated)	–	> 100 µM
CC(C)C(N)C(=O)NC(CCC(=O)NCCCCC(N)C(=O)NCCCNc1ccc([N+](=O)[O-])c2[nH]c3ccccc3c(=O)c12)C(N)=O (configuration not stated)	–	> 100 µM
O=C(/C=C/c1cccc(O)c1)c1cccc(-n2cc(-c3ccc4ccccc4c3)[nH]c2=O)c1	1.66 µM	4.84 µM
COc1cc(C2c3cc4c(cc3[C@@H](Nc3ccc5c(c3)OCO5)C3COC(=O)[C@H]23)OCO4)cc(OC)c1O (some centres not stated)	–	> 100 µM
CCOC(=O)C1=CC(C)(C(=O)OCC)Nc2c(nc(N)[nH]c2=O)N1 (configuration not stated)	–	> 10 µM
O=C(NCCN1CCNCC1)c1ccc(Nc2nc3ccccc3c3occc23)cc1	15.4 µM	30.6 µM
CC(C)[Si](OC/C(=C/COC(C)(C)C)[C@H]1CC=C(C(=O)c2ccccc2N2CN(C)C(=O)N(C)C2)C1)(C(C)C)C(C)C	–	31.4 µM
Cc1ccccc1/C=C/C(=O)c1ccccc1	–	35 µM
Cc1cccc(N=Nc2ccc(N=Nc3c(O)ccc4ccccc34)cc2C)c1	–	> 100 µM
O=C(Cl)C1=C(c2ccccc2)C1c1ccccc1 (configuration not stated)	–	> 100 µM
OCc1ccc(N2CCOCC2)cc1Cl	> 100 µM	> 100 µM
CN1CCN(C2=C(Cl)C3(OCCS3)C(F)(F)C2(F)F)CC1 (configuration not stated)	–	> 100 µM
CCCCCCCCCCCCCCCCCCOCC(COCCOCC[N+]1(CCCCCC(=O)[O-])CCCC1)Oc1ncccn1 (configuration not stated)	–	4.13 µM
O=C1C2=Nc3ccccc3C(O)(C(=O)O)N2c2ccccc21 (configuration not stated)	–	> 100 µM
O=C1c2cccc3cccc(c23)C(=O)N1O	–	> 100 µM
Cc1ccc(NC(=O)/C(Cc2cc(=O)oc3cc(O)ccc23)=N\NC(=O)C[N+](C)(C)C)cc1C	–	> 100 µM
N#Cc1c(-c2ccccc2)c2c([nH]c1=O)-c1cc([N+](=O)[O-])ccc1CCC2	–	> 100 µM
Cc1ccc(C)c(N2C(=O)C(=O)C(c3nc4ccccc4s3)C(=Nc3cccc4c(=O)[nH][nH]c(=O)c34)C2=O)c1 (configuration not stated)	–	> 100 µM
Cc1cc(C)nc(NS(=O)(=O)c2ccc(NC(=O)c3cccc4c(NNc5ccc(S(=O)(=O)N=C(N)N)cc5)c5ccccc5nc34)cc2)n1	–	> 50 µM

SMILES	GI50	TGI
C/C(=N\Nc1nc2ccccc2s1)c1ccc2ccccc2n1	–	> 100 µM
CCCCCCCCCCCC1CC(=O)NCCCN(C)CCCCN(C)CCCN1C (configuration not stated)	–	3.13 µM
O=C1c2ccccc2-c2c1c1ccccc1c(=O)n2CCNCCn1c2c(c3ccccc3c1=O)C(=O)c1ccccc1-2	> 25 µM	> 25 µM
COc1ccc2c(c1)c(=O)c1c(NCCNCCO)ccc3c(=O)n(CCN(C)C)c(=O)n2c31	–	0.394 µM
Cc1cc(O)c(-c2cc(O)c(C)cc2O)cc1O	–	35.8 µM
CCOC(=O)c1ccc(Nc2nc3ccc(C(F)(F)F)cc3nc2C(=O)OCC)cc1	–	> 100 µM
Cn1c(=O)nc2n(-c3ccc(Cl)c(C(F)(F)F)c3)c3ccccc3nc-2c1=O	–	> 86 µM
CC(=O)n1c(=O)c2cc3c(=O)n(-c4cccc(C#N)c4)c(=O)c3cc2c1=O	–	> 100 µM
O=C1/C(=C/c2ccc([N+](=O)[O-])cc2)COc2ccc(O)cc21	> 100 µM	> 100 µM
COc1cc(C2c3cc4c(cc3[C@@H](Nc3ccc5c(c3)OCCO5)C3COC(=O)[C@H]23)OCO4)cc(OC)c1O (some centres not stated)	–	31 µM
O=c1c2ccccc2sc2ccccc12	–	> 100 µM
CC1=NN(C(=O)c2ccncc2)C(=O)C1N=Nc1ccc(F)cc1 (configuration not stated)	–	> 100 µM
CN(C)CCCNC(=O)c1c(O)c2ccccc2n(C)c1=O	–	> 100 µM
COC1C(O)C(O[C@H]2CC[C@@]3(C)C(CC[C@@H]4[C@@H]3CC[C@]3(C)[C@@H](C(C)OC5OC(CO)C(O)C(O)C5O)CC[C@]43O)C2)OC(C)C1OC1OC(CO)C(O)C(O)C1O (some centres not stated)	–	> 100 µM
Cc1ccc(-n2nc(C(C)(C)C)cc2NC(=O)NCc2cc(F)ccc2Oc2ccc3c(cnn3CCO)c2)cc1	6.47 µM and 7.69 µM	> 100 µM
[2H]c1nc(=Nc2cc(NC(=O)C=C)c(N(C)CCN(C)C)cc2OC)[nH]c(-c2cn(C([2H])([2H])[2H])c3ccccc23)c1[2H]	0.1 µM	1.86 µM
O=C1c2cccc(O)c2C(=O)c2c(O)cc(CO)cc21	–	> 100 µM
O=C1C2=C(CCC2)Nc2cccc3ncn1c23	–	> 100 µM
N.N.N.N.N.O=S(=O)([O-])S(=O)(=O)[O-].[Co+3]	> 100 µM	> 100 µM
CCOC(=O)c1sc2ncnc(N)c2c1C	–	> 100 µM
COC(=O)c1ccc2c(c1)C(=O)c1c-2n(CCCN=[N+]=[N-])c(=O)c2cc([N+](=O)[O-])ccc12	> 100 µM	> 100 µM
CN(C)c1cccc2c1C(=O)C=CC21c2ccc(N(C)C)c3c(N(C)C)ccc(c23)C(c2ccccc2)C1c1ccccc1 (configuration not stated)	–	43.4 µM
O=C(/C=C/c1ccc2c(c1)OCO2)Cc1nc2ccccc2[nH]c1=O	–	> 100 µM
COP(=O)(OC)C(Nc1ccc(Cc2ccc(NC(c3ccco3)P(=O)(OC)OC)cc2)cc1)c1ccco1 (configuration not stated)	–	> 100 µM
COc1ccc(Nc2nccc(N3CCN(c4c5ccc(Cl)cc5nc5ccc(OC)cc45)CC3)n2)cc1	88.1 µM	> 100 µM

SMILES	GI50	TGI
COc1cc2[nH]c(-c3ccccc3)cc(=O)c2c(OC)c1OC	–	> 100 µM
CC(C)(C)c1ccc(OC2CCO2)cc1 (configuration not stated)	–	> 100 µM
O=C1c2ccccc2-c2c1c1c(NCCCO)nc3ccccc3c1n2Cc1ccccc1	22.1 µM	68 µM
COc1cc([N+](=O)[O-])c(OC)c2c(Nc3ccc(S(=O)(=O)O)c4cc(S(=O)(=O)O)cc(S(=O)(=O)O)c34)cc(C)nc12	–	> 100 µM
c1cnn2ncc(-c3ccnc(Nc4ccc5c(c4)OCCO5)n3)c2c1	0.0896 µM	–
CCOc1ccc(Nc2c3ccccc3nc3ccccc23)cc1	2.04 µM and 1.46 µM	14.8 µM and 11.2 µM
Cc1ccc2oc(=O)c(-c3ccccc3)nc2c1	–	86.2 µM
COC(=O)C1C(=O)N(CCc2c[nH]c3ccccc23)C[C@@H]2CCC(=O)C[C@H]12 (some centres not stated)	–	> 100 µM
CCN(CC)c1ccc(/C=C/C2=[N+](C)c3ccccc3C2(C)C)c(C)c1	0.272 µM	8.83 µM
COc1ccc(Oc2cnn(C(Br)(Br)C(C)=O)c(=O)c2Br)cc1	–	> 100 µM
COc1ccc(C2c3cc4c(cc3OC(NCCO)C2C)OCO4)cc1 (configuration not stated)	–	95.4 µM
CN(C)c1ccc(Cc2cc3c(O)ccc(O)c3cc(Cc3ccc(N(C)C)cc3)c2=O)cc1	–	> 100 µM
Clc1nncc2sc(-c3ccccc3)nc12	–	46.8 µM
O=C(OCC1OC(n2nc(Cn3nnc(-c4cccnc4)n3)n(-c3cccc4ccccc34)c2=S)C(OC(=O)c2ccccc2)C1OC(=O)c1ccccc1)c1ccccc1 (configuration not stated)	–	> 100 µM
COc1ccccc1NC(=O)/C(=C/c1ccccc1)C(C)=O	–	> 100 µM
O=S1SC(=S)C2C=CC=CC21 (configuration not stated)	–	> 100 µM
CON(C)C(=O)C1CCCO1 (configuration not stated)	–	> 100 µM
C/C1=C\CC[C@@](C)(O)[C@@H]2C[C@H](CC/C(C)=C/CC1)C1(CC1)C(=O)O2	28.6 µM	> 100 µM
COc1ccc([C@H]2C=[N+]([O-])O[C@H](OC3CCCC3)[C@@H]2OC(C)=O)cc1OC	–	> 100 µM
Clc1ccc(/C(=C\c2ccccc2)Cn2ccnc2)cc1	–	92.6 µM
CC(C)=CCC[C@@H](C)C1=C(O)C(N)=C(C)C(=O)C1=O	–	> 100 µM
C[C@]12C/C(=C/O)C(=O)C(O)=C1CC[C@@H]1C2CC[C@@]2(C)C1CC[C@@H]2O (some centres not stated)	–	48.7 µM
O=C(O)c1ccccc1C(=O)c1ccc2c(c1)Cc1ccccc1-2	–	> 100 µM
CC1(O)CCn2c(=O)c3cc4ccccc4cc3c(=O)n2C1O (configuration not stated)	–	> 100 µM
CC(C)(C)NCC(COc1ccc([N+](=O)[O-])cc1)OP(c1ccccc1)c1ccccc1 (configuration not stated)	–	> 100 µM

SMILES	GI50	TGI
O=[N+]([O-])c1cccc2c(N=Nc3ccc4ccccc4c3O)c(O)cc(S(=O)(=O)O)c12	–	> 100 µM
CC(=O)n1nc(-c2ccccc2)n(/N=C/c2ccc([N+](=O)[O-])o2)c1=O	–	35.3 µM
Cc1nc(-c2cccnc2)sc1C(=O)/C=C/c1cccc([N+](=O)[O-])c1	–	> 100 µM
Cc1cccc(C)c1N1C(=O)C(=O)C(c2nc3ccccc3s2)C(=Nc2cccc3c(=O)[nH][nH]c(=O)c23)C1=O (configuration not stated)	–	> 100 µM
CCOP(=O)(OCC)OC1CC(n2cc(C)c(=O)n(C)c2=O)OC1CO[Si](C)(C)C(C)(C)C (configuration not stated)	–	> 100 µM
CC(=Nc1ccc(S(N)(=O)=O)cc1)c1c(O)[nH]c2ccccc12	15 µM	> 25 µM
CCn1c(-c2nonc2N)nc2ccncc21	> 25 µM	> 25 µM
C=CCN1C(=O)/C(=C/c2ccc(C)cc2)N=C1SC1OC(COC(C)=O)C(OC(C)=O)C(OC(C)=O)C1OC(C)=O (configuration not stated)	–	> 100 µM
CCOC(OC1=C(C#N)CCCC1)C(CC)[Se]c1ccccc1 (configuration not stated)	–	> 100 µM
CCCCCCCCCCCCCC[n+]1cccc(C(N)=O)c1	7.72 µM	23.2 µM
CC(C)C1=C(O)C2=C(C(=O)C1=O)C1(C)CCCC(C)(C)C1C(O)C2OC=O (configuration not stated)	–	21.8 µM
Cc1c(-c2ccccc2)[nH]n(C2=NCCN2)c1=O	–	> 100 µM
CC1=NNC(=O)C1C1CC(c2c[nH]c3ccccc23)=NN=C1Cl (configuration not stated)	–	> 100 µM
C=C1C(=O)C23C(O)C1CC[C@H]2C12CCCC(C)(COC(C)=O)[C@H]1[C@H](O)[C@]3(O)OC2 (some centres not stated)	–	9.16 µM
C=CCNC(=O)N(CCC)CCCC(NC(C)=O)C(=O)NCc1ccccc1 (configuration not stated)	–	> 100 µM
COc1ccc(-n2nc(C)c3c(Nc4ccc(NC(=O)Nc5ccc(Cl)c(C(F)(F)F)c5)cc4)ncnc32)cc1	1.75 µM	5.47 µM
O=C(CC(C(=O)c1ccco1)c1ccco1)c1ccco1 (configuration not stated)	–	> 100 µM
CCCCCCC(C)CCCCCCCCCCC(=O)O (configuration not stated)	–	> 100 µM
O=C1C(C(O)(C(F)(F)F)C(F)(F)F)CCC1C(O)(C(F)(F)F)C(F)(F)F (configuration not stated)	–	> 100 µM
CN1c2ccccc2SC2C(c3ccccc3)=NOC21 (configuration not stated)	–	> 100 µM
Cc1c2ccncc2c(C)c2c1[nH]c1ccc(O)c(OCC(F)(F)F)c12	–	15.6 µM
O=C(NN1C(=O)CSC1c1cccc(F)c1)c1ccncc1 (configuration not stated)	–	> 100 µM
